The text below walks through data of PubChem BioAssay AID686979 (National Center for Advancing Translational Sciences (NCATS), 2013).

The structures appear in SMILES notation. Among all 420,000 compounds or so, about 50,000 (12%) were called active. About 26% were inconclusive and are not listed. Calls follow the shape of the dose curve; as a rule, active = well fitted inhibition curve with a large enough effect; inconclusive = small, poorly fitted or top-dose-only effect; inactive = flat fitted curve, though single readings scatter. Only a part is listed here, and it is no random draw. The source holds several records for some structures; these can differ, active in one and inactive in another.
% is scaled to controls: 0 for no effect and ±100 for the full control effect; potency is read from the fitted curve at half-maximal effect.

A short description of the assay: qHTS for Inhibitors of human tyrosyl-DNA phosphodiesterase 1 (TDP1): qHTS in cells in presence of CPT. Also: nearly all actives have a fitted effect of over 55% in size. The note with it: chicken DT40 Tdp1-/-;hTDP1 cells + 20 nM CPT, ATP luminescence, 48 h; series mostly up to 46.2 µM; activity change, negative = growth inhibition: at the top concentration. The gist of the method: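 Chicken DT40 Tdp1-/- cells stably complemented with human TDP1 were seeded at 400 cells/well in medium containing 20 nM camptothecin, exposed to pin-transferred compounds, and grown at 37 °C for at least 48 hr. Viability was read as ATP luminescence.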
(In qHTS, concentration-response curves come from the screen itself.)
As to `c1cnc2cc3c(cc2n1)[C@@H]1CNC[C@H]3C1`, the “activity change, negative = growth inhibition” value is inactive: 2.48%.

On to `CC1(C)C(O)CC[C@]2(C)C1CC[C@@]1(C)C2C(=O)C=C2[C@@H]3C[C@@](C)(C(=O)O)CC[C@@]3(C)CCC21C` (some centres undefined), for which the “activity change, negative = growth inhibition” value was inactive: 14.2%.

For the compound `CCOc1cc(/C=N/N=C2/NC(=O)C(CC(=O)O)S2)ccc1OS(=O)(=O)c1ccc(C)cc1` (centres undefined), the “activity change, negative = growth inhibition” value was inactive: 33.5%.

Take `O=C(O)C[C@H]1c2ccccc2S(=O)(=O)N1C1CCCCC1`: the “activity change, negative = growth inhibition” value was inactive: -18.6%.

Take `O=c1cc(-c2ccc(O)cc2)oc2cc(O)cc(O)c12`: the Potency result was “inactive”.

As for `CSc1ccc(OC2CCCCC2NS(=O)(=O)c2ccc(Cl)cc2)cc1` (centres undefined), the Potency is active: 25.9 µM.

Take `COC(C[C@H](O)[C@H](C)[C@H](O)COCc1ccccc1)OC`: the “activity change, negative = growth inhibition” value was inactive: 10%.

For the compound `CC(Cc1ccccc1)Nc1ncnc2c1ncn2C1OC(CO)C(O)C1O` (centres undefined), the “activity change, negative = growth inhibition” value was inactive: 11.8%.

On to `C[C@H]1CN([C@@H](C)CO)C(=O)CCCn2nncc2CO[C@H]1CN(C)S(=O)(=O)c1ccc(Cl)cc1`, for which the “activity change, negative = growth inhibition” value is inactive: -26.4%.

`Cc1cc(NC(=O)CS(=O)c2cn(Cc3cccc(Cl)c3)c3ccccc23)no1` (centres undefined): the Potency was active: 20.6 µM.

As to `COc1cccc(N2CCN(c3ncnc4c3cnn4-c3ccc(C)cc3C)CC2)c1`, the Potency was active: 1.84 µM.

With `O=C(CNC(=O)C1CCCCC1)NC1=NCCS1`, the Potency is active: 25.9 µM.

Consider `O=C1CCN(Cc2ccccc2)S(=O)(=O)c2ccc(F)cc21`, for which the “activity change, negative = growth inhibition” value was inactive: -2.23%.

`c1ccc(C2CN3CCSC3=N2)cc1` (centres undefined): the Potency result is “inactive”.

With `CC(=O)C[C@H]1c2cc(C(F)(F)F)ccc2S(=O)(=O)N1C1CCCC1`, the “activity change, negative = growth inhibition” value was inactive: -8.83%.

Turning to `COc1ccc(CNC(=O)Cn2cccc2C(=O)c2ccccc2C)cc1`, the “activity change, negative = growth inhibition” value was inactive: 14.1%.

As for `O=C(c1ccccc1)N(c1ccccc1)c1ccccc1O`, the Potency is active: 14.6 µM.

As to `CCCN[C@H]1CCc2nc(N)sc2C1`, the “activity change, negative = growth inhibition” value is inactive: -27.4%.

Turning to `O=C1NC[C@@H](CCCCN2C[C@H](Cc3ccccc3)N(Cc3ccccc3)C(=O)C2=O)N(CCc2ccccc2)C1=O`, the “activity change, negative = growth inhibition” value is inactive: -12.7%.

As for `COc1ccc(/C=C2\SC(=O)N(CCC(=O)Nc3ccc(S(=O)(=O)Nc4nccs4)cc3)C2=O)cc1`, the “activity change, negative = growth inhibition” value was inactive: 2.18%.

On to `c1ccc(-c2cn(CC3CCCCC3)nn2)cc1`, for which the “activity change, negative = growth inhibition” value was inactive: -15.8%.

On to `CCCCCC(=O)N1C[C@@H](O)[C@H](n2cc(C3CC3)nn2)C[C@@H]1c1ccc(C)cc1`, for which the “activity change, negative = growth inhibition” value was inactive: -19.7%.

Consider `C#CCNC(=O)C1=C[C@@H](c2ccccc2)C[C@@H](OCc2ccc(CO)cc2)O1`, for which the “activity change, negative = growth inhibition” value was inactive: 1.37%.

On to `CCOC(=O)C[C@H]1c2ccc(C(F)(F)F)cc2S(=O)(=O)N1C1CCCC1`, for which the “activity change, negative = growth inhibition” value is inactive: -19.3%.

Regarding `CCOC(=O)CN1C(=O)C(O)=C(C(C)=O)C1c1ccc([N+](=O)[O-])cc1` (centres undefined), the “activity change, negative = growth inhibition” value is inactive: 30.1%.

For the compound `COc1ccccc1CNC(=O)CN1C(=O)CSc2ccc(S(=O)(=O)N3CCCC3)cc21`, the “activity change, negative = growth inhibition” value was inactive: -10.6%.

Regarding `Cc1ccc(-n2c(CCC(=O)O)ccc2-c2cccs2)cc1C`, the “activity change, negative = growth inhibition” value was inactive: -8.08%.

With `CC(C)(C)[C@H]1COC(=O)[C@@H](Cc2ccc(F)cc2)CC/C=C/C[C@@H](CC(=O)N[C@@H](CO)Cc2ccccc2)C(=O)N1`, the “activity change, negative = growth inhibition” value was inactive: -109%.

For the compound `CCCCN(Cc1ccccc1)S(=O)(=O)c1cc(Br)cc2c1N(C(C)=O)C(C)C2` (centres undefined), the Potency is active: 16.4 µM.

As to `O=C(CN1C(=O)COc2ccc(S(=O)(=O)N3CCCCC3)cc21)NCc1ccc(F)cc1`, the “activity change, negative = growth inhibition” value was inactive: -11.8%.

`O=C(COC(=O)CCOc1ccccc1)NCCc1ccccc1`: the “activity change, negative = growth inhibition” value is inactive: -5.46%.

`CCN1CCC[C@H]1CNC(=O)c1c(OC)ccc(Br)c1OC`: the Potency result was “inactive”.

On to `CCO[C@H]1OC(C(=O)N2CCOCC2)=C[C@@H](c2ccc(C(F)(F)F)cc2)[C@@H]1CCCO`, for which the Potency is active: 0.517 µM.

On to `Cc1oc2cc([N+](=O)[O-])c(O)c([N+](=O)[O-])c2c1C(=O)c1ccc(Cl)cc1`, for which the Potency was active: 23.1 µM.

`O=C(O)CSCC(=O)NCc1ccc(Cl)cc1`: the “activity change, negative = growth inhibition” value is inactive: 36.2%.

Turning to `O=S(=O)(NCc1ccco1)N1CCOCC1`, the “activity change, negative = growth inhibition” value was inactive: 35.7%.

With `CC(NC(=O)C(=O)NCC1CCCO1)c1ccccc1` (centres undefined), the “activity change, negative = growth inhibition” value is inactive: 30.9%.

Consider `CCCN=C1NC(=O)C(CC(=O)NCCc2ccc(OC)c(OC)c2)S1` (centres undefined), for which the “activity change, negative = growth inhibition” value is inactive: 31.1%.

Turning to `Cc1ccc(Nc2cc(C(=O)NC3CCCC3)c3ccccc3n2)cc1C`, the Potency was active: 13 µM.

As to `Cc1ccc(SCCC(=O)Nc2nccs2)cc1`, the “activity change, negative = growth inhibition” value is inactive: 11.4%.

Turning to `C=CCOc1nc2c(c(=O)n(C)c(=O)n2C)n1Cc1ccccc1Cl`, the Potency is active: 16.4 µM.

For `C[C@@H]1C[C@H]2[C@@H]3CCC4=CC(=O)C=C[C@]4(C)[C@@]3(F)[C@@H](O)C[C@]2(C)[C@@]1(O)C(=O)CO`, the Potency result is “inactive”.

With `O=C(CSc1nnc(-c2ccncc2)n1-c1ccccc1)Nc1ccc(C(=O)O)cc1`, the “activity change, negative = growth inhibition” value is inactive: 13.5%.

On to `CCOc1cc(C(=O)Nc2ccc3oc(-c4ccc(CC)cc4)nc3c2)cc(OCC)c1OCC`, for which the Potency was active: 23.1 µM.

As to `O=C(O)C(S)C(S)C(=O)O` (centres undefined), the “activity change, negative = growth inhibition” value was inactive: -9.55%.

Regarding `O=C(C[C@H]1C/C=C\C[C@@H](Cc2ccc(F)cc2)C(=O)O[C@H](c2ccccc2)CNC1=O)N[C@@H](CO)Cc1ccccc1`, the “activity change, negative = growth inhibition” value was inactive: -21.6%.

For `O=C(CSc1ccc2ccccc2c1)NCCc1ccc(O)c(O)c1`, the Potency is active: 16.4 µM.

In the case of `C#CCN1CC(C)/C(=N/O)CC1C` (centres undefined), the “activity change, negative = growth inhibition” value is inactive: 41.5%.

Take `CC(C)(C)OC(=O)C[C@H]1C/C=C\C[C@H](CC(=O)NCCO)C(=O)NC[C@H](c2ccccc2)OC1=O`: the “activity change, negative = growth inhibition” value is inactive: 1.33%.

On to `O=C(O)CSc1ncccn1`, for which the “activity change, negative = growth inhibition” value is inactive: -4.77%.

For the compound `C=CC[C@@H](CC(=O)OC(C)(C)C)C(=O)OC[C@@H]1CCCN1C(=O)[C@H](CC=C)CC(=O)NCCO`, the “activity change, negative = growth inhibition” value was inactive: -2.93%.

For `CN(C)N=Nc1ccc(S(=O)(=O)NC(=O)Cc2ccccc2)cc1`, the “activity change, negative = growth inhibition” value was inactive: 36.9%.

Take `COc1ccc(-c2cc(C(=O)Nc3c(C)n(C)n(-c4ccccc4)c3=O)no2)cc1`: the “activity change, negative = growth inhibition” value was inactive: -14.3%.

Turning to `Cc1ccc2nc(-c3c[nH]c4ccccc34)c(Nc3ccc(F)cc3)n2c1`, the Potency is active: 14.6 µM.
